Assay results from PubChem BioAssay (NCATS).
Where “and” joins values, the source holds several entries; their conditions need not be identical. Identical values can stand only once. The list shows a part of the results. These are further read-outs of the screen, such as a control signal, another cell line or another target. No call is given for them. The list favours compounds with an active or inconclusive main result. Potencies come from curve fits of mixed quality, noted in brackets.

Test: qHTS Assay for Lipid Storage Modulators (AID 1519)
Details: Drosophila S3 cells, BODIPY lipid droplet/cell ratio, laser cytometry, cells loaded with oleic acid
Summary of the method: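 Cells seeded at 5,000 per well were treated with compounds over a concentration series and loaded with oleic acid (400 uM, as added). Lipid droplet fluorescence (488 nm excitation, 500-530 nm channel) was read by laser-scanning cytometry and normalized to 20 uM Triacsin C.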

[1] = measured here: cell count channel max response
[2] = measured here: cell number channel AC50
[3] = measured here: lipid (BODIPY) channel AC50
[4] = measured here: lipid channel max response
Tags give direction and shape of the fitted curve.

SMILES	max response [1]	AC50 [2]	AC50 [3]	max response [4]
COc1cc2c(cc1OC)[C@@H]1C(=O)c3ccc4c(c3OC1CO2)CC(C(C)C)O4 (stereo not given in full)	-31.9%	0.282 µM [falling, full curve]	0.316 µM [falling, full curve]	-87.4%
COc1ccc(NC(=O)N2CCCC3(CCN(C(=O)Oc4ccccc4)CC3)C2)cc1	15.6%	1.41 µM [rising, full curve, poor fit]	1.41 µM [rising, partial curve, poor fit]	18.8%
CC1=CC(=O)C2=C(C)C[C@H](O)[C@H]3[C@H](C)C(=O)O[C@@H]3C12 (stereo not given in full)	78.5%	28.2 µM [rising, partial curve, poor fit]	14.1 µM [rising, partial curve, poor fit]	95.5%
Nc1ncnc2c1ncn2[C@@H]1O[C@H](COP(=O)(O)CP(=O)(O)OP(=O)(O)O)[C@H](O)[C@H]1O	-68.4%	22.4 µM [falling, partial curve]	22.4 µM [falling, partial curve]	-71.2%
CC(C)[C@]1(NC(=O)[C@@H]2C=C3c4cccc5[nH]cc(c45)C[C@H]3N(C)C2)O[C@@]2(O)C3CCCN3C(=O)[C@H](Cc3ccccc3)N2C1=O (stereo not given in full)	78.9%	15.8 µM [rising, partial curve]	17.8 µM [rising, partial curve]	100%
COc1ccc(CC2NCC(O)C2OC(C)=O)cc1 (stereo not given)	39.4%	0.501 µM [rising, full curve]	0.398 µM [rising, full curve, poor fit]	-6.61%
CC(=O)Oc1c2c(c(CC=C(C)C)c3c1C(=O)C1=CC4CC5C(C)(C)OC(C/C=C(\C)C(=O)O)(C4=O)[C@]15O3)OC(C)(CCC=C(C)C)C=C2 (stereo not given in full)	-93.6%	22.4 µM [falling, partial curve]	6.31 µM [falling, full curve]	-112%
Oc1ccc2c3c1O[C@H]1c4c(c5ccccc5n4Cc4ccccc4)C[C@]4(O)[C@H](C2)N(CC2CC2)CC[C@@]314	83.9%	31.6 µM [rising, partial curve, poor fit]	35.5 µM [rising, partial curve, poor fit]	99.4%
COc1cc2c(cc1OC)-c1c(OC)c(OC)c(CO)c3c1C(C2)N(C)CC3 (stereo not given)	103%	1 µM [rising, full curve]	1.12 µM [rising, full curve]	122%
CN1Cc2ccccc2[C@@H]2c3cccc4[nH]cc(c34)C[C@H]21	15.8%	0.398 µM [rising, full curve, poor fit]	0.631 µM [rising, full curve, poor fit]	-0.504%
CN(C)C(=O)Oc1cc(OC(=O)N(C)C)cc(C(O)CNC(C)(C)C)c1 (stereo not given)	34.7%	39.8 µM [rising, single point]	39.8 µM [rising, single point]	41.9%
CC(C)=CCCC1(C)C=Cc2c(O)c3c(c(CC=C(C)C)c2O1)OC12C(=CC4CC1C(C)(C)OC2(C/C=C(/C)C(=O)O)C4O)C3=O (stereo not given)	-55.2%	39.8 µM [falling, single point]	25.1 µM [falling, partial curve]	-100%
CCCN(CCC)C1Cc2cc(OC)c(OC)cc2C1	68.3%	3.16 µM [rising, full curve, poor fit]	3.16 µM [rising, full curve]	73.3%
CC(=O)NBr	46.2%	39.8 µM [rising, single point]	39.8 µM [rising, single point]	46.1%
C[C@@H](C(=O)O)c1ccc(-c2ccccc2)c(F)c1	32.2%	11.2 µM [rising, full curve, poor fit]	11.2 µM [rising, full curve, poor fit]	45.9%
Clc1cncc(N2CCNCC2)n1	45.5%	15.8 µM [rising, partial curve, poor fit]	14.1 µM [rising, partial curve, poor fit]	56.9%
CC1CC[C@@]2(OC1)O[C@@H]1[C@@H](O)[C@H]3C4CC[C@H]5C[C@@H](O[C@@H]6O[C@H](CO)[C@H](O[C@@H]7O[C@H](CO)[C@@H](O)[C@H](O[C@@H]8OC[C@@H](O)[C@H](O)[C@H]8O)[C@H]7O[C@@H]7O[C@H](CO)[C@@H](O)[C@H](O[C@@H]8O[C@H](CO)[C@@H](O)[C@H](O)[C@H]8O)[C@H]7O)[C@H](O)[C@H]6O)[C@H](O)C[C@]5(C)C4CC[C@]3(C)[C@H]1[C@@H]2C (stereo not given in full)	69.4%	39.8 µM [rising, single point]	39.8 µM [rising, single point]	99.7%
c1ccc2c(c1)OC[C@@H](C1=NCCN1)O2	72.3%	17.8 µM [rising, partial curve]	20 µM [rising, partial curve]	90%

SMILES	max response [1]	AC50 [2]	AC50 [3]	max response [4]
CC(C)[C@@]1(NC(=O)[C@@H]2C[C@@H]3c4cccc5[nH]cc(c45)C[C@H]3N(C)C2)O[C@@]2(O)[C@@H]3CCCN3C(=O)[C@H](Cc3ccccc3)N2C1=O	58%	5.01 µM [rising, full curve]	3.16 µM [rising, full curve, poor fit]	51.5%
C[C@@H]1O[C@H](C[N+](C)(C)C)CS1	49.1%	39.8 µM [rising, single point]	39.8 µM [rising, single point]	47.4%
CC(C)[C@H](CO)Nc1nc(Nc2cccc(Cl)c2)c2ncn(C(C)C)c2n1	27.2%	1.26 µM [rising, full curve, poor fit]	0.794 µM [rising, full curve, poor fit]	-59.9%
COc1ccc2c(c1O)-c1c(OC)c(OC)cc3c1[C@H](C2)N(C)CC3	92.5%	39.8 µM [rising, single point]	39.8 µM [rising, partial curve, poor fit]	116%
CN1C[C@@H](CO)C=C2c3cccc4[nH]cc(c34)CC21 (stereo not given in full)	56.4%	7.94 µM [rising, full curve, poor fit]	10 µM [rising, partial curve]	82.9%
O=C1C=C2C=C[C@@H]3C[C@@]2(O1)[C@H]1CCCCN31	45.6%	35.5 µM [rising, partial curve, poor fit]	31.6 µM [rising, partial curve, poor fit]	53.1%
Cc1nnc2ccc(-c3cccc(C(F)(F)F)c3)nn12	117%	1.41 µM [rising, full curve]	1.26 µM [rising, full curve]	156%
CC1(C)N(O)C(c2ccc(C(=O)O)cc2)=[N+]([O-])C1(C)C	31.7%	39.8 µM [rising, single point]	39.8 µM [rising, single point]	43.5%
S=C(NC1CCCCC1)N1CCC(c2cnc[nH]2)CC1	121%	3.98 µM [rising, partial curve]	3.98 µM [rising, partial curve, poor fit]	156%
CN1CCN(C(=O)O[C@@H]2c3nccnc3C(=O)N2c2ccc(Cl)cn2)CC1	30.7%	14.1 µM [rising, single point]	15.8 µM [rising, single point]	37.1%
CCOC(=O)c1ncn2c1[C@H]1CCCN1C(=O)c1cc(OC)ccc1-2	56.3%	3.98 µM [rising, full curve]	4.47 µM [rising, full curve]	68.7%
C[C@H](Cc1ccc2c(c1)OC(C(=O)O)(C(=O)O)O2)NC[C@H](O)c1cccc(Cl)c1	65.4%	39.8 µM [rising, single point]	39.8 µM [rising, single point]	66.4%
CC(C)C1C(=O)N2CCCC2[C@]2(O)O[C@@](NC(=O)[C@@H]3C=C4c5cccc6[nH]cc(c56)C[C@H]4N(C)C3)(C(C)C)C(=O)N12 (stereo not given in full)	61%	12.6 µM [rising, partial curve]	14.1 µM [rising, partial curve]	79.6%
CCC1C(=O)OCC1Cc1cncn1C (stereo not given)	64.6% and 27.6%	15.8 µM [rising, partial curve, poor fit]	28.2 µM [rising, partial curve, poor fit] and 25.1 µM [rising, partial curve]	83.8% and 66.7%
NC[C@@H](CC(=O)O)c1ccc(Cl)cc1	42.5%	39.8 µM [rising, single point]	39.8 µM [rising, single point]	51.8%
C[C@H](N)Cc1c[nH]c2ccc(OCc3cccs3)cc12	92.8%	28.2 µM [rising, partial curve, poor fit]	25.1 µM [rising, partial curve]	121%
CNC(=O)Oc1ccc2c(c1)[C@@]1(C)CCN(C)[C@@H]1N2C	34.1%	31.6 µM [rising, single point]	31.6 µM [rising, single point]	46.4%
